Experimental data: article PMC7000700, “RyR1-targeted drug discovery pipeline integrating FRET-based high-throughput screening and human myofiber dynamic Ca^2+ assays” (Scientific Reports, 2020)

Test system: RyR1 Ca^2+ leak in human skinned skeletal muscle fibers
Test: t-system Ca2+ readout of RyR1 Ca2+ leak in human mechanically skinned skeletal muscle fibers
Conditions: after 10 μM myricetin or 100 μM chloroxine

Structure (SMILES)	Reversibility of effect (recovery of t-system fluorescence after washout)
Oc1c(Cl)cc(Cl)c2cccnc12 [chloroxine]	can be washed-out
O=c1c(O)c(-c2cc(O)c(O)c(O)c2)oc2cc(O)cc(O)c12 [myricetin]	can be washed-out
